In the supplement of paper PMC3334620:
In all, about 33,000 sequences were measured (“E-score (-0.5 to 0.5)”: median about -0.035, highest 2% from about 0.35 on). This is one part of the list.

target: T1, Pdr3 (UniProt P33200); experiment: PBM E-score (8-mer binding enrichment) (E-score (-0.5 to 0.5)); higher = stronger / more preferred TF binding; most listed sequences are background and not binding sites; conditions: protein concentration: 200 nM; construct: GST-full length
T1 sequence: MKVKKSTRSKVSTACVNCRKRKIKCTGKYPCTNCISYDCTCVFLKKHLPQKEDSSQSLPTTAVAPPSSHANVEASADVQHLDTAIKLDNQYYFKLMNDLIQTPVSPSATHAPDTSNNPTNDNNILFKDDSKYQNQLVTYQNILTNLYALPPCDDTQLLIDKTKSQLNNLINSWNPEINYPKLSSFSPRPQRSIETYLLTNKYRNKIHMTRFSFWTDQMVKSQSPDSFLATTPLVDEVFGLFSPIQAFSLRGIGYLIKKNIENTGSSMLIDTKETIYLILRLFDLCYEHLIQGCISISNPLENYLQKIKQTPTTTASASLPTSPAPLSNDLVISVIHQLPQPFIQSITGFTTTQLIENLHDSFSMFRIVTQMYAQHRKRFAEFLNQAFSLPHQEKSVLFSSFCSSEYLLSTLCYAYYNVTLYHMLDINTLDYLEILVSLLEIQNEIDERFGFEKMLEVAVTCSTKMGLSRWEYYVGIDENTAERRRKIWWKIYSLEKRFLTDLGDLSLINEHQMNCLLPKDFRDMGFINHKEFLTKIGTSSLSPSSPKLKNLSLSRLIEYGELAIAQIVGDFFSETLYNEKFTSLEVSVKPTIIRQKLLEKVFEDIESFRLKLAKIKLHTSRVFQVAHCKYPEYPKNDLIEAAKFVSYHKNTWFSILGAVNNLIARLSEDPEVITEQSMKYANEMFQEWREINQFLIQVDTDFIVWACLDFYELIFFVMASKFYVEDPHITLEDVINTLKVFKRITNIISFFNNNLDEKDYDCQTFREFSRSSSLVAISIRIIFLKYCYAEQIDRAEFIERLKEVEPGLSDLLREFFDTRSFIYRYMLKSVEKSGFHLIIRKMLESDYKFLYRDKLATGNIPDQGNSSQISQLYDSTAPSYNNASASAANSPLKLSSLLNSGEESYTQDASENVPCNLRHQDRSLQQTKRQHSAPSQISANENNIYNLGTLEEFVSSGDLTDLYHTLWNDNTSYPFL
Method in brief: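 Universal all-10-mer Agilent arrays, double-stranded by primer extension on fresh or once-stripped slides, were probed with about 100-200 nM GST-tagged yeast transcription factors made by PURExpress. Fluorescent anti-GST detected bound protein, and masliner normalised the scans. E-scores from the Universal PBM Analysis Suite were given to each ungapped eight-base word pooled with its reverse complement.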

| Sequence | PBM E-score |
| --- | --- |
| CTGAACTC | -0.215 |
| GAGTGTGC | -0.038 |
| ATGACTGC | -0.00882 |
| AATACCCG | 0.261 |
| CTGGCAAA | -0.0742 |
| ATCTTCGA | -0.115 |
| CTAAGACC | 0.00783 |
| CTCCATAA | -0.273 |
| AAGTGCCG | 0.0826 |
| GCTGGACA | -0.068 |
| AAAAAACC | -0.0481 |
| TGGGACCA | -0.106 |
| AGAGCCAA | -0.163 |
| GAGTAAAA | -0.107 |
| ACTAAATG | -0.0461 |
| CAGGAAGC | 0.0744 |
| GCGTGCAA | -0.172 |
| AGTGCCAC | -0.112 |
| AAAACCGG | 0.253 |
| AAGCTGGG | -0.102 |
| AGATGTCC | 0.0949 |
| TAGCCTAA | -0.291 |
| GTAGGGAC | -0.106 |
| ACTGGTGC | -0.0467 |
| GAGGCGGC | 0.126 |

| Sequence | PBM E-score |
| --- | --- |
| CATATGAG | -0.0186 |
| GGCAGGAA | 0.0303 |
| GTACGGTA | 0.0177 |
| ACCAAGAC | 0.0001 |
| ATCCGAAA | 0.248 |
| CTCTTCGA | -0.061 |
| CCGCGAGG | 0.292 |
| AGTCTCCC | -0.0822 |
| AGCGGACG | 0.234 |
| CGCTGAAA | 0.0326 |
| AGCTATAT | 0.0497 |
| TCAATTCA | -0.024 |
| GCCTCCTA | -0.268 |
| GGGCGAGA | 0.0226 |
| CCCTTCCC | 0.0658 |
| ACTAGAAC | -0.00871 |
| ACTTGCCA | -0.00274 |
| CTCATAGC | -0.307 |
| AGGGGGAT | -0.104 |
| GAATTTTA | -0.0134 |
| ATGTGAGG | -0.114 |
| CCACAGAA | -0.159 |
| GAAAACGC | -0.178 |
| ATTGGGTA | -0.256 |
| AATCGCAC | -0.206 |

| Sequence | PBM E-score |
| --- | --- |
| AACACGAT | 0.0715 |
| ATTTATTC | 0.113 |
| GGTACATA | 0.121 |
| GATCGATA | -0.0722 |
| ACGTAATA | -0.118 |
| GGCCCTTA | -0.0861 |
| ATTATAGA | -0.161 |
| CACTTAGG | -0.123 |
| CGGTTACG | 0.00035 |
| CTCTTCGC | 0.0423 |
| CAGGGGAG | -0.071 |
| AGGGTTCC | 0.249 |
| ACAATAAC | 0.116 |
| CCGGCGAC | 0.267 |
| GCAACTCA | 0.00983 |
| CTACCCAG | -0.231 |
| CCGCATCC | 0.128 |
| TAGCCTGA | -0.28 |
| CTGAAGCA | -0.199 |
| ACAAAAGG | -0.0346 |
| CTTAGAAA | -0.17 |
| CTGGATAC | -0.0239 |
| CTGCTCGC | -0.0332 |
| CGCGCGGA | 0.383 |
| CTCGCCTC | -0.0716 |

| Sequence | PBM E-score |
| --- | --- |
| AACCTCGG | 0.18 |
| GGTTAGAC | 0.0804 |
| GGGCGAAA | 0.132 |
| ATTCTGCC | 0.209 |
| CAGAGACC | -0.09 |
| AATAGAAG | -0.0729 |
| TAGCAGGA | -0.0867 |
| AAGTTCTG | -0.0867 |
| ACGAGTTG | -0.0912 |
| ACGCGTTA | -0.0884 |
| GTTTATCA | 0.231 |
| AGAGACTG | -0.161 |
| AGTTAGAT | -0.212 |
| ATCACCGC | -0.0267 |
| ACCGAGCA | 0.154 |
| ACTCGCCA | -0.14 |
| GGAATGCA | 0.259 |
| GCTGGGGA | -0.226 |
| CTCGCACA | 0.0857 |
| CTGACAGC | -0.0252 |
| GCATTACA | 0.0468 |
| CAAAAACC | 0.0333 |
| AACTAAGT | -0.0156 |
| CCCTGCAG | 0.129 |
| CCTTCACG | -0.0977 |

| Sequence | PBM E-score |
| --- | --- |
| GGCCAAGA | -0.176 |
| CGTGAGAG | -0.186 |
| CCAAAGTC | -0.201 |
| ATGTGTCC | 0.175 |
| GGCTGGAA | -0.0461 |
| CGTTTTGC | -0.154 |
| ACCTACAT | -0.0815 |
| CGCAAGAG | 0.0334 |
| GGGGCTAC | -0.0937 |
| ACGGTACT | 0.166 |
| GGATAGAC | -0.0752 |
| AACATGAT | -0.0409 |
| CACGAACC | -0.0685 |
| AAGCGATC | 0.0113 |
| TAATCCTA | -0.166 |
| AAACACAC | -0.00581 |
| AAAACCCG | 0.319 |
| CTATTCAC | 0.0948 |
| AAGAGTGT | -0.108 |
| CAAGAAGA | -0.0691 |
| GGGTTAGA | -0.044 |
| CATCAACG | 0.174 |
| ACATCACT | -0.0719 |
| GATAGGAC | -0.246 |
| ACGACATG | -0.0929 |

| Sequence | PBM E-score |
| --- | --- |
| TGGTACCA | 0.174 |
| CAGCAATC | -0.145 |
| AGCCCAAT | -0.194 |
| CCACTGGG | -0.104 |
| CCTTTGTA | -0.22 |
| AGGCAATC | -0.157 |
| ACTTTTCA | -0.209 |
| GTCGGCAC | 0.0801 |
| ACGAATGC | -0.158 |
| AAGTACGT | 0.0103 |
| CGGGATCA | 0.344 |
| ATCGCTTG | -0.221 |
| TATGGAAA | 0.127 |
| CGGACATC | 0.319 |
| CGCCGAAA | 0.188 |
| CGCGGACC | 0.437 |
| AGTGGATC | 0.206 |
| ATATGGCG | 0.0995 |
| GGTCAAGA | -0.197 |
| CAGGGTAA | -0.101 |
| CCTACTAG | -0.221 |
| CAGGATCA | -0.0271 |
| AGCACACG | -0.219 |
| AAAATAAC | -0.13 |
| CACGTGAA | -0.0583 |

| Sequence | PBM E-score |
| --- | --- |
| GGCTACTA | -0.0598 |
| CTCGATGC | -0.0716 |
| GCCGAGAC | 0.16 |
| CACTCCGC | 0.243 |
| GCACTCCA | -0.0427 |
| ACTTTCAG | -0.184 |
| CATATCTC | -0.00388 |
| ACGATCAT | -0.0852 |
| GGTACGAC | -0.12 |
| CATCCCAA | -0.0143 |
| CAGACAGA | -0.0799 |
| CATCTTGG | -0.0743 |
| CATCGGCA | 0.123 |
| AGTGATAT | 0.0166 |
| CGAAGTAC | 0.107 |
| GAAGGGGC | -0.256 |
| TGAGAACA | -0.162 |
| GGATTACA | -0.0427 |
| ACACACAC | -0.191 |
| CGAGAATA | 0.0747 |
| ACTTATAG | -0.0963 |
| AAGCGAGT | 0.198 |
